Reference: PubChem BioAssay (NCI)
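A five-concentration, 48-hour dose response in 96-well plates underlies each endpoint, interpolated linearly between surrounding concentrations. GI50: concentration for 50% inhibition of growth. TGI: concentration producing complete growth inhibition.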

System: NCI-H322M lung
Assay: NCI anticancer screen, dose series, 48 h

SMILES: Cn1ccnc1C(=O)/C=C/c1ccc(NC(=O)c2ccc(F)cc2)cc1
- GI50: 4.47 µM
- TGI: > 33.3 µM
